For some assays here: Shown are results outside the selection of hits, which stands elsewhere. Inconclusive results are not listed. The list shows a part of the results, in another mix than the full data. The source made the active and inactive calls. How the source made its calls, unless noted: active means hit-call score of the fitted dose curve at least 0.9, where 1 is the maximum; inactive means score below 0.9.
What was measured:
[1] = read-out: Low-density lipoprotein receptor (LDLR), LDLR (gene 3949); assay: BSK_CASM3C_LDLR: BioMAP Diversity Plus: CASM3C Assay for Low-density lipoprotein receptor (LDLR) Biomarker Activity (AID 2283045); conditions: actives raise or lower the signal; primary human coronary artery smooth muscle cells;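 further: LDLR protein level on the cell surface quantified by ELISA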
[2] = read-out: E-selectin (Homo sapiens) (UniProt P16581); assay: BSK_LPS_Eselectin: BioMAP Diversity Plus: LPS Assay for Eselectin Biomarker Activity (AID 2283077); conditions: actives raise or lower the signal; primary human HUVEC with PBMC
Sequence of UniProt P16581 (P16581 whole entry, looked up): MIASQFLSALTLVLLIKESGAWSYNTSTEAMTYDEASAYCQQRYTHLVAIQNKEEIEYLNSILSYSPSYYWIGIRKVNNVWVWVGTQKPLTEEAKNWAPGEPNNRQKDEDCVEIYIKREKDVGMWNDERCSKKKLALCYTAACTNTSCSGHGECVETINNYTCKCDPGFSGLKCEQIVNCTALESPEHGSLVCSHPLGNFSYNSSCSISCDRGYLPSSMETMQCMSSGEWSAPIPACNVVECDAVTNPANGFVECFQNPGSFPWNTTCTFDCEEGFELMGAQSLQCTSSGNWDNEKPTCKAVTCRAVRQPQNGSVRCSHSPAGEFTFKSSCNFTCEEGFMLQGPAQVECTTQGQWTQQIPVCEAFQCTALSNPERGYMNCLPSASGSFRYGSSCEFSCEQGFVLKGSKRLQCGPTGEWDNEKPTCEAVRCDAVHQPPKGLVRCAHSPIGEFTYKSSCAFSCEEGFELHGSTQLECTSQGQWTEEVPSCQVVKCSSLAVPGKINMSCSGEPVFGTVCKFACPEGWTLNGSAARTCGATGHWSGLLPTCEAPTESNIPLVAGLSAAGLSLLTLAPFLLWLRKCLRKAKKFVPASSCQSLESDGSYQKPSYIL
Procedure, shortened: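 Signal of E-selectin, detected by ELISA, served as the endpoint; cells were umbilical vein endothelium with PBMC, read 24 h after treatment. DMSO defined baseline, and both increases and decreases were fitted.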

CD40, CD40 (gene 958) = assay: BSK_SAg_CD40: BioMAP Diversity Plus: SAg Assay for CD40 Biomarker Activity (AID 2283088); conditions: actives raise or lower the signal; primary human HUVEC with PBMC
Procedure, shortened: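 Fluorescence ELISA read-out of CD40 from umbilical vein endothelium plus peripheral blood mononuclear cells, sampled 24 h after dosing. Values come from bidirectional curve fitting with DMSO as baseline.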

[3] = read-out: Monokine induced gamma interferon (MIG), CXCL9 (gene 4283); assay: BSK_SAg_MIG: BioMAP Diversity Plus: SAg Assay for Monokine induced gamma interferon (MIG) Biomarker Activity (AID 2283092); conditions: actives raise or lower the signal; primary human HUVEC with PBMC
Procedure, shortened: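 Measures CXCL9 protein by ELISA in a human vascular primary-cell co-culture (umbilical vein endothelium with PBMC) 24 h after chemical addition. Activity is scored up or down from the DMSO control.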

[4] = BSK_SAg_SRB: Viability Assessment in the BioMAP Diversity Plus: SAg Assay (AID 2283096); conditions: primary human HUVEC with PBMC;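 further: cells read one day after compound addition; hits may be either gain or loss of signal compared with DMSO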
Procedure, shortened: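 This overt-cytotoxicity endpoint quantifies protein in human endothelial/PBMC co-cultures at 24 h using SRB absorbance (560 nm) after trichloroacetic acid fixation. Values reflect signal change from the DMSO negative control, fitted bidirectionally.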

[5] = target: chimpanzee Androgen Receptor (AR), AR (gene 747460) (UniProt O97775); assay: NVS_NR_cAR: NovaScreen (NVS) Nuclear Receptor Binding Assay for chimpanzee Androgen Receptor (AR) (AID 2283346; active means hit-call score of the fitted dose curve at least 0.9, where 1 is the maximum;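 further: radioligand displacement from AR measured by scintillation counting in a cell-free assay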)
Sequence of UniProt O97775 (O97775 whole entry, looked up): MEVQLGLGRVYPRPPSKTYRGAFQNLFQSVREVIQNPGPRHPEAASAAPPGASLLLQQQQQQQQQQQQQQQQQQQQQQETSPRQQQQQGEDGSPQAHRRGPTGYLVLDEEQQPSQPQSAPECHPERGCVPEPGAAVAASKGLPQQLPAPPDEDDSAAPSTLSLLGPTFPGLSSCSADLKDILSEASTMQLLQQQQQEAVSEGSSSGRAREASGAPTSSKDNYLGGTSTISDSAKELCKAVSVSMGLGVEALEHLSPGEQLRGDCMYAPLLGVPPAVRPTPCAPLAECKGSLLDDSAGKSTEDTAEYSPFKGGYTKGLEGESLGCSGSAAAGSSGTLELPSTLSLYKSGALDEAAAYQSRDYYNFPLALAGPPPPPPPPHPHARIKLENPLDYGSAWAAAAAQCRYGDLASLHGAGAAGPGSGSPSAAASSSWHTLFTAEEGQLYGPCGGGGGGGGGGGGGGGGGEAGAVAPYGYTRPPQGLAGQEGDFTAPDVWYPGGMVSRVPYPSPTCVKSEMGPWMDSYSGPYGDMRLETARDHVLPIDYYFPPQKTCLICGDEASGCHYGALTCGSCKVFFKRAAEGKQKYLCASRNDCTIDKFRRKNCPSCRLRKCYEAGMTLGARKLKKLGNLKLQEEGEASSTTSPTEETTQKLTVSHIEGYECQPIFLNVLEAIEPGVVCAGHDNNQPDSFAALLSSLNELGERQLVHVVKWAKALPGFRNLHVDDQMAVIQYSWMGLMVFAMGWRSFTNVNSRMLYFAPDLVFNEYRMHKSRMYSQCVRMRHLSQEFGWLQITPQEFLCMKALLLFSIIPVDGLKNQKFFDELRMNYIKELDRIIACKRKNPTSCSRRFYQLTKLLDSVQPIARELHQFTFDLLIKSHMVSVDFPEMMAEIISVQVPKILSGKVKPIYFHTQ
Procedure, shortened: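 Cell-free radioligand displacement using receptor protein extracted from Sf9/Sf21 cells; bound radioligand measured by scintillation counting 72 hours after chemical dosing. Loss of signal versus DMSO baseline indicates binding; primary screen single-concentration in duplicate at 25 uM, actives followed in concentration series.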

PGR (gene 5241) = PGR (gene 5241) (UniProt P06401); assay: TOX21_PR_BLA_Followup_Antagonist_ratio: Tox21 HEK293 Progesterone Receptor (PR) Antagonism Beta-lactamase Follow-Up Assay, Ratio (AID 2283934; active means hit-call score of the fitted dose curve at least 0.9, where 1 is the maximum;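 further: PR-UAS-bla HEK293T cells stimulated with 1 nM R5020 agonist for 16 hr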)
Procedure, shortened: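 Readout is the blue/green (ch2/ch1) substrate cleavage ratio after 2 hours at room temperature, following 16 hr co-treatment of PR-bla HEK293T cells with compound and 1nM promegestone. Multiplexed CellTiter-Glo viability flags cytotoxicity; DMSO baseline.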

[6] = read-out: Vascular cell adhesion molecule 1 (VCAM1), VCAM1 (gene 7412); assay: BSK_MyoF_VCAM1: BioMAP Diversity Plus: MyoF Assay for Vascular cell adhesion molecule 1 (VCAM1) Biomarker Activity (AID 2284231); conditions: primary human lung fibroblasts
Procedure, shortened: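 Steps: fibroblasts from human lung exposed to compound; biomarker quantified by ELISA at 24 h; values analysed for upward change over the DMSO baseline.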

[7] = read-out: Macrophage colony-stimulating factor (MCSF), CSF1 (gene 1435); assay: BSK_CASM3C_MCSF: BioMAP Diversity Plus: CASM3C Assay for Macrophage colony-stimulating factor (MCSF) Biomarker Activity (AID 2283044); conditions: actives raise or lower the signal; primary human coronary artery smooth muscle cells;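 further: M-CSF protein amount quantified by ELISA after 24 h exposure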
[8] = read-out: Vascular cell adhesion molecule 1 (VCAM1), VCAM1 (gene 7412); assay: BSK_hDFCGF_VCAM1: BioMAP Diversity Plus: hDFCGF Assay for Vascular cell adhesion molecule 1 (VCAM1) Biomarker Activity (AID 2283065); conditions: actives raise or lower the signal; primary human foreskin fibroblasts;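 further: VCAM-1 protein level quantified by ELISA after 24 h chemical exposure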
Procedure, shortened: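 Cells are dosed, cultured for 24 h, then VCAM-1 is quantified by ELISA; signal increases and decreases are both fitted relative to DMSO.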

[9] = target: human Aurora Kinase A - serine/threonine-protein Kinase 6 (AurA), AURKA (gene 6790) (UniProt O14965); assay: NVS_ENZ_hAurA: NovaScreen (NVS) Enzymatic Assay for human Aurora Kinase A - serine/threonine-protein Kinase 6 (AurA) (AID 2283142; active means hit-call score of the fitted dose curve at least 0.9, where 1 is the maximum)
Sequence of UniProt O14965 (O14965 whole entry, looked up): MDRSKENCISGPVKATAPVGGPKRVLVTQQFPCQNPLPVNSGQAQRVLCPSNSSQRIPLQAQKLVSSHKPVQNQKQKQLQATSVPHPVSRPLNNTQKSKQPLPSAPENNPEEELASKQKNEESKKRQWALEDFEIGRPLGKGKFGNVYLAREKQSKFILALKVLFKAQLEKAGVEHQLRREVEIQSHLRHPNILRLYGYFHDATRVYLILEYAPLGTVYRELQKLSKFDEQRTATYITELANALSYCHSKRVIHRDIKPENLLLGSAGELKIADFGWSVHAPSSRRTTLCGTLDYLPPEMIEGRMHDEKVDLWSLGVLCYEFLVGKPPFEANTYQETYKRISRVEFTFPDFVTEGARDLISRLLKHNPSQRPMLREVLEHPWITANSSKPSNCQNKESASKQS
Procedure, shortened: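 Recombinant human AurA activity read by fluorescence after mobility-shift separation of product from substrate; 1 hour incubation. Chemicals first run in duplicate at 25 uM, then concentration series to 50 uM if over threshold; fitted relative to DMSO.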

[10] = target: human Protein Tyrosine Phosphatase Receptor Type B (PTPRB), PTPRB (gene 5787) (UniProt P23467); assay: NVS_ENZ_hPTPRB: NovaScreen (NVS) Enzymatic Assay for human Protein Tyrosine Phosphatase Receptor Type B (PTPRB) (AID 2283211; active means hit-call score of the fitted dose curve at least 0.9, where 1 is the maximum)
Sequence of UniProt P23467 (P23467 whole entry, looked up): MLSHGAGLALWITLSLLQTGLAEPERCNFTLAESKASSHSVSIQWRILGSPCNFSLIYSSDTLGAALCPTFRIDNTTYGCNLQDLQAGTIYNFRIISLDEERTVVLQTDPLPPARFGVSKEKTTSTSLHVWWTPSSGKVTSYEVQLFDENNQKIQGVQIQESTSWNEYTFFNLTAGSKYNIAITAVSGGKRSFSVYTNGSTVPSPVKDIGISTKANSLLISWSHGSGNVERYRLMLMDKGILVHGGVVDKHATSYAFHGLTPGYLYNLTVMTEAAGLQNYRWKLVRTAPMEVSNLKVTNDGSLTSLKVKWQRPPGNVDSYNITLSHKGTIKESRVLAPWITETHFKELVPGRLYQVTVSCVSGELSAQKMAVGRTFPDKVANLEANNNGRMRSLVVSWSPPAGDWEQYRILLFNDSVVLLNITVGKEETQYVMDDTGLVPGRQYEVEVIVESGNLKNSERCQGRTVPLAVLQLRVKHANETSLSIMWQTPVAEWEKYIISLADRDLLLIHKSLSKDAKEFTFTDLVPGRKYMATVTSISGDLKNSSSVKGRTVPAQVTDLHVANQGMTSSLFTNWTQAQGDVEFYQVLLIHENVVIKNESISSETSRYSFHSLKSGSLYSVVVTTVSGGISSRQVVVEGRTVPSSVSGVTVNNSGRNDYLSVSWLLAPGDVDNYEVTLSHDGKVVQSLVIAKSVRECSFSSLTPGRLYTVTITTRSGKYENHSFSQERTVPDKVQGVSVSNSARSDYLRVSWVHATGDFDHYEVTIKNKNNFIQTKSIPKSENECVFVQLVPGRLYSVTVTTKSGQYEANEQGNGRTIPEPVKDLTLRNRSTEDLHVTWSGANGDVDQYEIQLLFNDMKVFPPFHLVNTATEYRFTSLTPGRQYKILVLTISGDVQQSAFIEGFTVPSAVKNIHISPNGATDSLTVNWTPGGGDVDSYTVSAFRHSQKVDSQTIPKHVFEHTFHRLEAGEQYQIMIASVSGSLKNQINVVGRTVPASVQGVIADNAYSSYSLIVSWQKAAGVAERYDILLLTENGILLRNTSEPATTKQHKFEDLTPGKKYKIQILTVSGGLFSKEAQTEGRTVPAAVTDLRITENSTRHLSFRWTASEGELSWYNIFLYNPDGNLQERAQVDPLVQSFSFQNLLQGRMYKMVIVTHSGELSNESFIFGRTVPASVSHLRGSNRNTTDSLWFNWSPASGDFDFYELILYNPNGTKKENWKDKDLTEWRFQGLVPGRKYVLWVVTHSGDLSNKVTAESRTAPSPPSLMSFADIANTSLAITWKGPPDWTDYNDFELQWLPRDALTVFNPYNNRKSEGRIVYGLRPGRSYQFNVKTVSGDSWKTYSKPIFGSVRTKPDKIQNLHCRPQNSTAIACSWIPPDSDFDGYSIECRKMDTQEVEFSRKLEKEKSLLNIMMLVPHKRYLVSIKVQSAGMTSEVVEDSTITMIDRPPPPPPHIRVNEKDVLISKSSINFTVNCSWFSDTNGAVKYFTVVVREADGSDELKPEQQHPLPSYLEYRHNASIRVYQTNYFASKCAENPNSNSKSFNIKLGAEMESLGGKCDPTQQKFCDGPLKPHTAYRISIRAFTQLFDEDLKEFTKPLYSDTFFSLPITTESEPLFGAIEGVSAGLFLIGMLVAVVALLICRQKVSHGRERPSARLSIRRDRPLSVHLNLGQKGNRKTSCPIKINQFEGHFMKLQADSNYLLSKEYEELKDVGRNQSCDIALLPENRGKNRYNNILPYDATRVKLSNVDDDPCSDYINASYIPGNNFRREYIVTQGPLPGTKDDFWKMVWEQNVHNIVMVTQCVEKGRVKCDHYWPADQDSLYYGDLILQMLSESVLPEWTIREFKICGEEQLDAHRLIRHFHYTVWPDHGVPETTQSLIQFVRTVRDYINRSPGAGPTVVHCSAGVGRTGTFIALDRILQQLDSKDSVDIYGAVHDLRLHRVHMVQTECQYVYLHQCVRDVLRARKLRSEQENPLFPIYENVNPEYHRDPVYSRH

[11] = read-out: Cytochrome P450 4A22 (Homo sapiens) (UniProt Q5TCH4); assay: LTEA_HepaRG_CYP4A22: Life Technologies and Expression Analysis (LTEA) Assay for Cytochrome P450 4A22 (CYP4A22) using HepaRG (AID 2283495); conditions: actives raise or lower the signal; mRNA level, 48 h
Procedure, shortened: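 Cryopreserved HepaRG cells, plated and cultured 48 h, then switched to serum-free induction medium and treated 48 h (duplicates, up to 100 uM, half-log steps, 0.5% DMSO). Expression change of CYP4A22 was fitted bidirectionally against vehicle.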

[12] = read-out: Heat shock 70 kDa protein 1 (HSPA1A), gene 3303; assay: LTEA_HepaRG_HSPA1A: Life Technologies and Expression Analysis (LTEA) Assay for Heat shock 70 kDa protein 1 (HSPA1A) using HepaRG (AID 2283502); conditions: actives raise or lower the signal; mRNA level, 48 h
Procedure, shortened: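 HSPA1A expression measured by qRT-PCR with ACTB/GAPDH/POLR2A normalization; curves fitted in both directions relative to DMSO vehicle. Exposure: 48 h in HepaRG cells, duplicate 8-point half-log series from 100 uM, 0.5% DMSO, serum-free induction medium.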

[13] = read-out: Monokine induced gamma interferon (MIG), CXCL9 (gene 4283); assay: BSK_hDFCGF_MIG: BioMAP Diversity Plus: hDFCGF Assay for Monokine induced gamma interferon (MIG) Biomarker Activity (AID 2283063); conditions: actives raise or lower the signal; primary human foreskin fibroblasts
Procedure, shortened: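 MIG signal, determined by ELISA, reflects 24 h chemical exposure of human skin primary fibroblasts. DMSO serves as negative control and baseline.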

[14] = read-out: Tumor necrosis factor receptor superfamily member 6 (Homo sapiens) (UniProt P25445); assay: LTEA_HepaRG_FAS: Life Technologies and Expression Analysis (LTEA) Assay for Fas cell surface death receptor (FAS) using HepaRG (AID 2283447); conditions: actives raise or lower the signal; mRNA level, 48 h
Procedure, shortened: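 Differentiated human HepaRG cells, pre-cultured 48 h, were exposed in duplicate for 48 h to 8-point half-log concentrations (top 100 uM, 0.5% DMSO) in serum-free induction medium; FAS mRNA measured by qRT-PCR, normalized to ACTB/GAPDH/POLR2A, bidirectional fit versus DMSO.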

TIMP1, TIMP1 (gene 7076) = assay: LTEA_HepaRG_TIMP1: Life Technologies and Expression Analysis (LTEA) Assay for TIMP1 using HepaRG (AID 2283534); conditions: actives raise or lower the signal; mRNA level, 48 h
Procedure, shortened: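 We dosed human liver HepaRG cultures for 48 hours with up to 100 uM test chemical and measured TIMP1 expression by qRT-PCR. Activity in either direction is fitted relative to the 0.5% DMSO vehicle.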

Sequence of Cytochrome P450 4A22 (Homo sapiens) (Q5TCH4 whole entry, looked up): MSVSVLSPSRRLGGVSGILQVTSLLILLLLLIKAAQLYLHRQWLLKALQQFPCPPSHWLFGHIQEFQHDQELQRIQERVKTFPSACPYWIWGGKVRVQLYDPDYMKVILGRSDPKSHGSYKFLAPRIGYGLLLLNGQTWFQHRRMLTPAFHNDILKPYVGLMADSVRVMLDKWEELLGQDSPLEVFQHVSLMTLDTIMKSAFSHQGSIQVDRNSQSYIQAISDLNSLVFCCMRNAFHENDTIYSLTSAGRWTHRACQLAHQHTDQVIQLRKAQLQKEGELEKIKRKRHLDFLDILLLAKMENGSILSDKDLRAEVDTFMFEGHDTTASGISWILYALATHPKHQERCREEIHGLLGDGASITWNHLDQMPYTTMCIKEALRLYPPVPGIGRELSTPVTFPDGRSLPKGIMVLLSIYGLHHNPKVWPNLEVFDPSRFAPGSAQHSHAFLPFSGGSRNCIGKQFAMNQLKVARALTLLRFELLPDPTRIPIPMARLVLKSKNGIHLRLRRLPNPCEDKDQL
Sequence of Tumor necrosis factor receptor superfamily member 6 (Homo sapiens) (P25445 whole entry, looked up): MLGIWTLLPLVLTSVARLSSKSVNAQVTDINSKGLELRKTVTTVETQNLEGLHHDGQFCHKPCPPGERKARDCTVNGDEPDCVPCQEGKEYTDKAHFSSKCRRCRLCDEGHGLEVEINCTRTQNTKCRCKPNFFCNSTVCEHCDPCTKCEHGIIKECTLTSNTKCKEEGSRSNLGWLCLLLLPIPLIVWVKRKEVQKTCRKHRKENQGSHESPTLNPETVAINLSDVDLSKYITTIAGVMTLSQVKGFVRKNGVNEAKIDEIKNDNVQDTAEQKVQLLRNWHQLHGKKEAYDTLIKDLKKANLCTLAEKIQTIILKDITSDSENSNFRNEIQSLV

CC(C)(c1cc(Cl)c(O)c(Cl)c1)c1cc(Cl)c(O)c(Cl)c1
outcome [1]: inactive | AC50 [2]: active: 30.4 µM | AC50 (CD40, CD40 (gene 958)): active: 24.4 µM | AC50 [3]: active: 35.6 µM | AC50 [4]: active: 30.1 µM | outcome [5]: inactive | AC50 (PGR (gene 5241)): active: 11.2 µM | AC50 [6]: active: 10.5 µM

CN1CSC(=S)N(C)C1
outcome [7]: inactive

CCNS(=O)(=O)C(F)(F)C(F)(F)C(F)(F)C(F)(F)C(F)(F)C(F)(F)C(F)(F)C(F)(F)F
AC50 [8]: active: 11.8 µM | outcome [9]: inactive | AC50 [10]: active: 17 µM | outcome [11]: inactive | outcome [12]: inactive

CCOC(=O)[C@]1(c2ccccc2)Oc2ccccc2[C@@H]1N
AC50 [13]: active: 31.4 µM | AC50 [14]: active: 77.4 µM | AC50 (TIMP1, TIMP1 (gene 7076)): active: 84.3 µM

Reference: PubChem BioAssay (EPA / NIEHS)
